Assay results taken from PubChem BioAssay AID1508623 (National Center for Advancing Translational Sciences (NCATS), 2021).
About 450 (0.94%) of roughly 48,000 compounds were called active. The shares of active, inactive and inconclusive entries below differ from those in the screen. Calls follow the shape of the dose curve; as a rule, active = well fitted inhibition curve with a large enough effect; inconclusive = small, poorly fitted or top-dose-only effect; inactive = no such curve, though single readings can be large or run the other way. Potencies of inconclusive entries are doubtful fits and often do not repeat.

Assay: Primary qHTS for Identification of Small Molecule Inhibitors of Huntingtin Promoter Activity; also: nearly all actives have a fitted effect of over 50% in size
Conditions: HEK293 HTT promoter firefly luciferase reporter (activity 0% = vehicle and -100% = no light), 24 h; series mostly up to 57.5 µM
Outline: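 Firefly luciferase readout (Dual-Glo, 10 min RT) after 24 h, 37 °C compound exposure (final up to 57.5 uM) of HEK293 reporter cells cultured 24 h beforehand; PTC124 at 50 uM final as control inhibitor; activity scaled vehicle 0%, zero RLU -100%.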
Potency is read from the fitted curve at half-maximal effect; tags tell the direction and shape of the fitted curve.

| SMILES | Potency |
| --- | --- |
| Cc1ccc(NC(=O)Cn2c(=O)oc3cc(S(=O)(=O)N4CCCCCC4)ccc32)cc1Cl | inconclusive: 10 µM [inhibitor, partial curve, poor fit] |
| CCOc1ccc(Nc2c(S(=O)(=O)c3ccccc3)cnc3ccccc23)cc1 | inconclusive: 22.4 µM [inhibitor, partial curve, poor fit] |
| O=C(O)C[C@H](O)C[C@H](O)C=Cc1c(C2CC2)nc2ccccc2c1-c1ccc(F)cc1 | inactive |
| Nc1ccn([C@@H]2O[C@H](CO)[C@H](O)C2(F)F)c(=O)n1 | inconclusive: 3.06 µM [inhibitor, full curve] |
| Cc1ccc(NC(=O)CN2C(=O)C3(SCC(=O)N3c3ccc(F)c(F)c3)c3ccccc32)c(C)c1 (centres undefined) | inactive |
| COc1ccc(Cl)cc1NC(=O)NCC1CCN(Cc2ccccc2F)CC1 | inconclusive: 14.1 µM [inhibitor, partial curve, poor fit] |
| COc1ccc(N2CCN(C(=O)c3cc(S(=O)(=O)N4CCC(C)CC4)cn3C)CC2)cc1 | inconclusive: 39.8 µM [inhibitor, partial curve, poor fit] |
| CCN(C(=O)C1CCN(c2ncnc3c2nc2n3CCCCC2)CC1)c1cccc(Cl)c1 | inconclusive: 28.2 µM [inhibitor, partial curve, poor fit] |
| Cc1ccc(C)c(Cn2c(=O)cc(C)c3c(C)nn(C)c32)c1 | inconclusive: 28.2 µM [inhibitor, partial curve, poor fit] |
| Cc1nc(N)ncc1-c1nc(N2CCOCC2)c2sc(C(C)(C)O)cc2n1 | inconclusive: 1.72 µM [inhibitor, full curve] |
| COc1ccc(NC(=O)/C=C\C(=O)N(c2ccc(C(C)C)cc2)C(C(=O)NCc2ccco2)c2ccc(F)cc2)cc1 (centres undefined) | inconclusive: 39.8 µM [inhibitor, single point] |
| Cc1cccc(NC(=O)Cc2csc(COc3cccc(C)c3)n2)c1 | inactive |
| CCOc1ccc(S(=O)(=O)Nc2ccc(-c3ccc(OC)nn3)cc2)cc1 | inconclusive: 25.1 µM [inhibitor, single point] |
| Cc1ccc(Cl)cc1NS(=O)(=O)c1cc2c3c(c1)CC(=O)N3CCC2 | inconclusive: 39.8 µM [inhibitor, single point] |
| Cc1ccc(CNC(=O)Cn2c(=O)n(-c3cccc(Cl)c3)c(=O)c3sc4ccccc4c32)cc1 | inactive |
| COc1ccccc1N1CCN(C(=O)c2cc3ccc4ccc(C)[nH]c4c3n2)CC1 | inconclusive: 28.2 µM [inhibitor, single point] |
| CCOc1ccc(-c2cc3nc(C4CCN(C(=O)OC(C)(C)C)CC4)c(C(=O)Nc4ccc(C)cc4C)cn3n2)cc1 | inconclusive: 25.1 µM [inhibitor, partial curve] |
| CCOC(=O)C1CCCN(S(=O)(=O)c2csc(C(N)=O)c2)C1 (centres undefined) | inconclusive: 25.1 µM [inhibitor, partial curve] |
| O=C(c1ccc(CS(=O)c2ccccc2Cl)o1)N1CCN(c2cccc(Cl)c2)CC1 (centres undefined) | inconclusive: 3.55 µM [inhibitor, partial curve, poor fit] |
| COc1cccc(CNC(=O)c2ccc(NC(=O)N3CC(C)Sc4ccccc43)cc2)c1 (centres undefined) | inactive |

| SMILES | Potency |
| --- | --- |
| O=C(CSc1cn(CC(=O)N2CCCC2)c2ccccc12)Nc1cc(C(F)(F)F)ccc1Cl | inconclusive: 39.8 µM [inhibitor, single point] |
| CCCS(=O)(=O)c1nc(S(=O)(=O)c2ccc(C)cc2)c(NCc2ccccc2)s1 | inconclusive: 14.1 µM [inhibitor, partial curve, poor fit] |
| CCOC(=O)c1ccc(N2C(=O)c3n[nH]c(-c4cccs4)c3C2c2ccc(Cl)cc2Cl)cc1 (centres undefined) | inconclusive: 28.2 µM [inhibitor, partial curve] |
| CC(=O)N1CCCc2cc(S(=O)(=O)N3CCCC(C(=O)N4CCN(c5cc(C)ccc5C)CC4)C3)ccc21 (centres undefined) | inconclusive: 15.8 µM [inhibitor, partial curve] |
| Cc1ccc(C(=O)COC(=O)CCC(=O)Nc2ccc(Oc3cc(C)ccc3C(C)C)cc2)cc1 | inconclusive: 25.1 µM [inhibitor, single point] |
| CCc1ccc(C2=NN(CCC(=O)NCCc3ccc(Cl)cc3)C(=O)CC2)cc1 | inconclusive: 14.1 µM [inhibitor, partial curve] |
| CCCN1C(C(=O)c2ccccc2)=C(OC(=O)c2ccc(C)cc2)c2ccccc2S1(=O)=O | inconclusive: 39.8 µM [inhibitor, single point] |
| Cc1ccc(NC(=O)Cn2c(=O)ccc3cc(S(=O)(=O)N4CCC(C)CC4)ccc32)cc1C | inconclusive: 25.1 µM [inhibitor, single point] |
| O=C(COc1ccc(Cl)cc1)NCCc1csc(-c2cccc(F)c2)n1 | inconclusive: 28.2 µM [inhibitor, single point] |
| Cc1ccc(NC(=O)CSc2nc(-c3ccco3)cc(C(F)(F)F)n2)cc1C | inconclusive: 7.94 µM [inhibitor, partial curve] |
| Cc1ccc(NC(=O)c2nc(-c3ccncc3)no2)c(Cl)c1 | inactive |
| O=C(c1cc(F)cc(F)c1)N1CCC(c2nc(-c3ccc(S(=O)(=O)N4CCCC4)cc3)no2)CC1 | inactive |
| CCOc1ccc(NC(=O)Cn2c(=O)oc3cc(S(=O)(=O)N4CCC(C)CC4)ccc32)cc1 | active: 10 µM |
| O=C(Cn1c(=O)nc(-c2ccccc2)c2cc(Cl)ccc21)NCCc1ccccc1 | inactive |
| Cc1ccc(O)c(-c2n[nH]c3c2C(c2ccccc2F)N(Cc2ccco2)C3=O)c1 (centres undefined) | inconclusive: 39.8 µM [inhibitor, single point] |
| Cc1ccc(OCC(=O)N(Cc2sccc2C)C2CCS(=O)(=O)C2)cc1 (centres undefined) | inactive |
| Cc1ccc2onc(CC(=O)N3CCN(c4cccc(C)c4C)CC3)c2c1 | inconclusive: 25.1 µM [inhibitor, single point] |
| COc1ccc(-c2noc(CSc3nnc(-c4ccncc4)n3-c3ccc(C)c(C)c3)n2)cc1 | inactive |
| COc1ccc(-c2nc(Cn3c(SCc4ccc(F)cc4)nc4cccnc43)c(C)o2)cc1 | inconclusive: 28.2 µM [inhibitor, single point] |
| O=C(O)[C@@H](c1ccc(OCc2ccc3ccccc3n2)cc1)C1CCCC1 | inactive |

| SMILES | Potency |
| --- | --- |
| Cc1ccc(OCC(=O)Nc2ccc3nc(SCC(=O)N(C)c4ccccc4)sc3c2)cc1 | inconclusive: 39.8 µM [inhibitor, single point] |
| COc1ccc(CC(=O)NCCc2sc(-c3cccc(F)c3)nc2C)cc1 | inconclusive: 39.8 µM [inhibitor, partial curve, poor fit] |
| Cn1c(=O)oc2cc(S(=O)(=O)N3CCC(C(=O)N4CCN(c5cccc(Cl)c5)CC4)CC3)ccc21 | inconclusive: 20 µM [inhibitor, partial curve] |
| CCOc1ccc(CCNC(=O)c2ccc(CS(=O)Cc3ccc(Cl)cc3)o2)cc1 (centres undefined) | inconclusive: 31.6 µM [inhibitor, single point] |
| CN1CCc2c(sc3c2C(=O)NC(c2ccc(OC(=O)c4ccc(Cl)cc4)cc2)N3)C1 (centres undefined) | inactive |
| O=C(Nc1ccc(S(=O)(=O)N(Cc2ccccc2)c2ccccc2)cc1)c1ccc(F)cc1 | inconclusive: 22.4 µM [inhibitor, partial curve, poor fit] |
| O=C(CCc1ccccc1)N1CCc2c([nH]c3ccccc23)C1c1ccc(F)cc1 (centres undefined) | inconclusive: 12.6 µM [inhibitor, partial curve] |
| CN1C(=O)c2ccccc2Sc2ccc(NC(=O)c3ccc(C#N)cc3)cc21 | inconclusive: 17.8 µM [inhibitor, single point] |
| Cc1nn(C(C)(C)C)c(OC(=O)c2c(F)cccc2F)c1Sc1ccccc1 | inconclusive: 28.2 µM [inhibitor, partial curve, poor fit] |
| Cc1cccc(NS(=O)(=O)c2ccc3c(c2)CCCN3C(=O)C2CCC2)c1C | inconclusive: 31.6 µM [inhibitor, partial curve, poor fit] |
| CCOc1ccc(Nc2c3c(nc4nncn24)CCC3)cc1 | inconclusive: 17.8 µM [inhibitor, partial curve, poor fit] |
| CCOc1ccc(-c2nnc(SCC(=O)Nc3cccc(Cl)c3C)o2)cc1 | inconclusive: 8.91 µM [inhibitor, partial curve] |
| Cc1cc2c(cc1S(=O)(=O)Nc1cccc(Cl)c1C)OCCN2C | inconclusive: 22.4 µM [inhibitor, single point] |
| Cc1ccc(CNC(=O)C2CCCN(Cc3nc(-c4cccc(C)c4)oc3C)C2)cc1 (centres undefined) | inconclusive: 39.8 µM [inhibitor, single point] |
| Cc1cc(C)c(NC(=O)Cc2ccc(-n3c(C)nc4cccnc43)cc2)c(C)c1 | inconclusive: 12.6 µM [inhibitor, partial curve, poor fit] |
| C=CC[N+]1([C@H]2C[C@H]3[C@@H]4CC[C@H]5C[C@H](OC(C)=O)[C@@H](N6CCCCC6)C[C@]5(C)[C@H]4CC[C@]3(C)[C@H]2OC(=O)CC)CCCCC1 | inactive |
| CCOc1cc(C2C(C(=O)OC)=C(C)NC3=C2C(=O)c2ccccc23)cc(Br)c1OCC (centres undefined) | inconclusive: 10 µM [inhibitor, partial curve, poor fit] |
| COc1ccc(Cl)cc1C(=O)NCc1nc(-c2cccc(C)c2)no1 | inconclusive: 39.8 µM [inhibitor, single point] |
| CC(=O)Nc1ccc(NC(=O)C2Cc3ccccc3N2C(=O)c2ccccc2)cc1 (centres undefined) | inactive |
